B1: CAPRIN1 peptide 364-379 (Caprin-1), 16-mer library wild type / G3BP1 NFT2 (G3BP1 NTF2 domain, […]) (parent complex)
chain 1: AQMQGPYNFIQDSMLD
chain 2: not shown

The variants in the assay derive from B1. The assay can be described thus: proteomic peptide phage display deep mutational scan (ProP-PD DMS): M13 P8 16-mer library selected against immobilised GST-tagged bait for four days (rounds), NGS of the eluted pools per day and pseudo-replica; bait immobilised on MaxiSorp plates (10 µg), library pre-cleared on GST, 2 h binding at 4 °C, five washes; one round per day, days 1-4; value from days 2 and 3.
As to chain 1 Q4W, the screen value was 0.00641 average fractional NGS count over selection days 2 and 3 (reads of this peptide / all reads for the bait, averaged over ….

On to chain 1 Q4V, for which the screen value is 0.00685 average fractional NGS count over selection days 2 and 3 (reads of this peptide / all reads for the bait, averaged over ….

As to chain 1 Q4Y, the screen value was 0.00105 average fractional NGS count over selection days 2 and 3 (reads of this peptide / all reads for the bait, averaged over ….

For chain 1 Q4F, the screen value was 0.00554 average fractional NGS count over selection days 2 and 3 (reads of this peptide / all reads for the bait, averaged over ….

chain 1 Q4G: the screen value is 0.0027 average fractional NGS count over selection days 2 and 3 (reads of this peptide / all reads for the bait, averaged over ….

Regarding chain 1 Q4M, the screen value is 0.0075 average fractional NGS count over selection days 2 and 3 (reads of this peptide / all reads for the bait, averaged over ….

Turning to chain 1 Q4R, the screen value is 0.000279 average fractional NGS count over selection days 2 and 3 (reads of this peptide / all reads for the bait, averaged over ….

As for chain 1 Q2M, the screen value is 0.0389 average fractional NGS count over selection days 2 and 3 (reads of this peptide / all reads for the bait, averaged over ….

Consider chain 1 Q2N, for which the screen value was 0.000638 average fractional NGS count over selection days 2 and 3 (reads of this peptide / all reads for the bait, averaged over ….

Regarding chain 1 Q2H, the screen value was 0.00981 average fractional NGS count over selection days 2 and 3 (reads of this peptide / all reads for the bait, averaged over ….

With chain 1 Q2R, the screen value was 0.000371 average fractional NGS count over selection days 2 and 3 (reads of this peptide / all reads for the bait, averaged over ….

In the case of chain 1 Q2A, the screen value is 0.0126 average fractional NGS count over selection days 2 and 3 (reads of this peptide / all reads for the bait, averaged over ….

For the variant chain 1 Q2I, the screen value was 0.000733 average fractional NGS count over selection days 2 and 3 (reads of this peptide / all reads for the bait, averaged over ….

Take chain 1 Q2W: the screen value was 0.0105 average fractional NGS count over selection days 2 and 3 (reads of this peptide / all reads for the bait, averaged over ….

chain 1 Q2T: the screen value is 0.0042 average fractional NGS count over selection days 2 and 3 (reads of this peptide / all reads for the bait, averaged over ….

With chain 1 Q2V, the screen value was 0.0133 average fractional NGS count over selection days 2 and 3 (reads of this peptide / all reads for the bait, averaged over ….

As for chain 1 Q2E, the screen value is 0.0332 average fractional NGS count over selection days 2 and 3 (reads of this peptide / all reads for the bait, averaged over ….

In the case of chain 1 Q2G, the screen value was 0.000442 average fractional NGS count over selection days 2 and 3 (reads of this peptide / all reads for the bait, averaged over ….

In the case of chain 1 Q2L, the screen value was 0.00213 average fractional NGS count over selection days 2 and 3 (reads of this peptide / all reads for the bait, averaged over ….

For chain 1 Q2K, the screen value was 0.00215 average fractional NGS count over selection days 2 and 3 (reads of this peptide / all reads for the bait, averaged over ….

Take chain 1 Q2S: the screen value is 0.00148 average fractional NGS count over selection days 2 and 3 (reads of this peptide / all reads for the bait, averaged over ….

For chain 1 S13T, the screen value was 0.000255 average fractional NGS count over selection days 2 and 3 (reads of this peptide / all reads for the bait, averaged over ….

chain 1 S13N: the screen value is 0.000299 average fractional NGS count over selection days 2 and 3 (reads of this peptide / all reads for the bait, averaged over ….

On to chain 1 S13D, for which the screen value is 0.000131 average fractional NGS count over selection days 2 and 3 (reads of this peptide / all reads for the bait, averaged over ….

Take chain 1 S13A: the screen value was 0.000238 average fractional NGS count over selection days 2 and 3 (reads of this peptide / all reads for the bait, averaged over ….

As to chain 1 A1F, the screen value was 0.00358 average fractional NGS count over selection days 2 and 3 (reads of this peptide / all reads for the bait, averaged over ….

Consider chain 1 A1D, for which the screen value was 0.00095 average fractional NGS count over selection days 2 and 3 (reads of this peptide / all reads for the bait, averaged over ….

For the variant chain 1 A1V, the screen value was 0.00538 average fractional NGS count over selection days 2 and 3 (reads of this peptide / all reads for the bait, averaged over ….

Regarding chain 1 A1E, the screen value is 0.000756 average fractional NGS count over selection days 2 and 3 (reads of this peptide / all reads for the bait, averaged over ….

Turning to chain 1 A1T, the screen value is 0.000526 average fractional NGS count over selection days 2 and 3 (reads of this peptide / all reads for the bait, averaged over ….

For chain 1 A1N, the screen value is 0.00166 average fractional NGS count over selection days 2 and 3 (reads of this peptide / all reads for the bait, averaged over ….

Regarding chain 1 A1Q, the screen value is 0.00399 average fractional NGS count over selection days 2 and 3 (reads of this peptide / all reads for the bait, averaged over ….

Take chain 1 A1H: the screen value is 0.000554 average fractional NGS count over selection days 2 and 3 (reads of this peptide / all reads for the bait, averaged over ….

Consider chain 1 A1I, for which the screen value is 0.00024 average fractional NGS count over selection days 2 and 3 (reads of this peptide / all reads for the bait, averaged over ….

As to chain 1 A1S, the screen value was 0.000106 average fractional NGS count over selection days 2 and 3 (reads of this peptide / all reads for the bait, averaged over ….

Turning to chain 1 A1R, the screen value is 0.000399 average fractional NGS count over selection days 2 and 3 (reads of this peptide / all reads for the bait, averaged over ….

Consider chain 1 A1Y, for which the screen value is 0.0126 average fractional NGS count over selection days 2 and 3 (reads of this peptide / all reads for the bait, averaged over ….

With chain 1 A1G, the screen value was 0.000992 average fractional NGS count over selection days 2 and 3 (reads of this peptide / all reads for the bait, averaged over ….

On to chain 1 G5F, for which the screen value was 0.0278 average fractional NGS count over selection days 2 and 3 (reads of this peptide / all reads for the bait, averaged over ….

As for chain 1 G5T, the screen value was 0.00108 average fractional NGS count over selection days 2 and 3 (reads of this peptide / all reads for the bait, averaged over ….

Consider chain 1 G5D, for which the screen value is 0.000228 average fractional NGS count over selection days 2 and 3 (reads of this peptide / all reads for the bait, averaged over ….

For the variant chain 1 G5N, the screen value is 0.000337 average fractional NGS count over selection days 2 and 3 (reads of this peptide / all reads for the bait, averaged over ….

In the case of chain 1 G5V, the screen value is 0.00114 average fractional NGS count over selection days 2 and 3 (reads of this peptide / all reads for the bait, averaged over ….

Take chain 1 G5H: the screen value is 0.000938 average fractional NGS count over selection days 2 and 3 (reads of this peptide / all reads for the bait, averaged over ….

With chain 1 G5A, the screen value is 0.000425 average fractional NGS count over selection days 2 and 3 (reads of this peptide / all reads for the bait, averaged over ….

As for chain 1 G5K, the screen value was 0.000245 average fractional NGS count over selection days 2 and 3 (reads of this peptide / all reads for the bait, averaged over ….

Consider chain 1 G5Q, for which the screen value is 0.000636 average fractional NGS count over selection days 2 and 3 (reads of this peptide / all reads for the bait, averaged over ….

Turning to chain 1 G5L, the screen value was 0.000325 average fractional NGS count over selection days 2 and 3 (reads of this peptide / all reads for the bait, averaged over ….

For chain 1 G5P, the screen value was 0.00327 average fractional NGS count over selection days 2 and 3 (reads of this peptide / all reads for the bait, averaged over ….

As for chain 1 G5M, the screen value is 0.00218 average fractional NGS count over selection days 2 and 3 (reads of this peptide / all reads for the bait, averaged over ….

chain 1 D12V: the screen value is 0.000345 average fractional NGS count over selection days 2 and 3 (reads of this peptide / all reads for the bait, averaged over ….

On to chain 1 D12M, for which the screen value was 0.000821 average fractional NGS count over selection days 2 and 3 (reads of this peptide / all reads for the bait, averaged over ….

For the variant chain 1 D12S, the screen value is 0.00438 average fractional NGS count over selection days 2 and 3 (reads of this peptide / all reads for the bait, averaged over ….

chain 1 D12N: the screen value is 0.00209 average fractional NGS count over selection days 2 and 3 (reads of this peptide / all reads for the bait, averaged over ….

For chain 1 D12Y, the screen value is 0.000244 average fractional NGS count over selection days 2 and 3 (reads of this peptide / all reads for the bait, averaged over ….

Regarding chain 1 D12E, the screen value is 0.00279 average fractional NGS count over selection days 2 and 3 (reads of this peptide / all reads for the bait, averaged over ….

With chain 1 D12L, the screen value is 0.000557 average fractional NGS count over selection days 2 and 3 (reads of this peptide / all reads for the bait, averaged over ….

On to chain 1 D12A, for which the screen value was 0.00629 average fractional NGS count over selection days 2 and 3 (reads of this peptide / all reads for the bait, averaged over ….

For the variant chain 1 D12R, the screen value was 0.000239 average fractional NGS count over selection days 2 and 3 (reads of this peptide / all reads for the bait, averaged over ….

Turning to chain 1 D12K, the screen value was 0.000211 average fractional NGS count over selection days 2 and 3 (reads of this peptide / all reads for the bait, averaged over ….

In the case of chain 1 D12T, the screen value is 0.000399 average fractional NGS count over selection days 2 and 3 (reads of this peptide / all reads for the bait, averaged over ….

In the case of chain 1 D12F, the screen value was 0.000325 average fractional NGS count over selection days 2 and 3 (reads of this peptide / all reads for the bait, averaged over ….

chain 1 D12P: the screen value is 0.00335 average fractional NGS count over selection days 2 and 3 (reads of this peptide / all reads for the bait, averaged over ….

As for chain 1 M14F, the screen value is 0.00517 average fractional NGS count over selection days 2 and 3 (reads of this peptide / all reads for the bait, averaged over ….

chain 1 M14W: the screen value is 0.00243 average fractional NGS count over selection days 2 and 3 (reads of this peptide / all reads for the bait, averaged over ….

As to chain 1 M14Q, the screen value was 0.0024 average fractional NGS count over selection days 2 and 3 (reads of this peptide / all reads for the bait, averaged over ….

In the case of chain 1 M14V, the screen value was 0.000202 average fractional NGS count over selection days 2 and 3 (reads of this peptide / all reads for the bait, averaged over ….

Turning to chain 1 M14E, the screen value was 0.000345 average fractional NGS count over selection days 2 and 3 (reads of this peptide / all reads for the bait, averaged over ….

For the variant chain 1 M14L, the screen value was 0.000362 average fractional NGS count over selection days 2 and 3 (reads of this peptide / all reads for the bait, averaged over ….

Turning to chain 1 M14N, the screen value is 0.000389 average fractional NGS count over selection days 2 and 3 (reads of this peptide / all reads for the bait, averaged over ….

For chain 1 M14H, the screen value was 0.000243 average fractional NGS count over selection days 2 and 3 (reads of this peptide / all reads for the bait, averaged over ….

Consider chain 1 M14D, for which the screen value was 0.000927 average fractional NGS count over selection days 2 and 3 (reads of this peptide / all reads for the bait, averaged over ….

As to chain 1 M14A, the screen value is 0.00158 average fractional NGS count over selection days 2 and 3 (reads of this peptide / all reads for the bait, averaged over ….

Consider chain 1 M14T, for which the screen value was 0.000321 average fractional NGS count over selection days 2 and 3 (reads of this peptide / all reads for the bait, averaged over ….

As for chain 1 M14R, the screen value was 0.000201 average fractional NGS count over selection days 2 and 3 (reads of this peptide / all reads for the bait, averaged over ….

Values taken from paper PMC12102759 (2025).
